The source gives no read counts; variants with many changes may rest on few reads.
B1: CPEB3 Ribozyme (parent)
chain: UAACAGGGGGCCACAGCAGAAGCGUUCACGUCGCAGCCCCUGUCAGAUUCUGGUGAAUCUGCGAAUUCUGCUGUAUAUCUC

Variants of: B1
Assay: self-cleavage, relative activity (ratio to wild type); higher = more cleavage; in vitro, sequencing
Outline: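 Barcoded CPEB3 ribozyme mutants, produced by rounds of error-prone PCR, self-cleaved while being transcribed with T7 RNA polymerase for 5 hours at 37°C and during a subsequent 15 min DNase I step before EDTA was added. Sequencing of template-switched cDNA on Illumina gave cleaved and total reads, and DNA sequencing assigned barcodes to variants. Each variant's relative activity is its cleaved/total read fraction divided by the unmutated ribozyme's fraction, averaged across three batches. A variant needed a minimum of 5 reads.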
A45G A47G A56U U76C showed a self-cleavage of 0.17. Variant A45G A47G A57G has a self-cleavage of 0.43. A45G A47G C62A U74C showed a self-cleavage of 0.21. Variant A45G A47G G53A U80G has a self-cleavage of 0.94. In the case of A45G A47G G73A, the self-cleavage is reported as 1.24. With A45G A47G U58G C62U the self-cleavage was 0.13. With A45G A47G U69A the self-cleavage was 0.23. A45G A47G U72C U80C showed a self-cleavage of 0.7. A45G A47G U74C showed a self-cleavage of 0.85. With A45G A47U A57G the self-cleavage was 0.1. With A45G A47U U58G C62U the self-cleavage was 0.19. A45G A47U U67C showed a self-cleavage of 0.13. A45G A47U U74C showed a self-cleavage of 0.47. Variant A45G A56C U67C U80C has a self-cleavage of 0.14. For A45G A56G A57G U58C, the self-cleavage was 0.2. In the case of A45G A56G A64G, the self-cleavage is reported as 0.38. For A45G A56G A75G, the self-cleavage was 0.38. Variant A45G A56G U58C has a self-cleavage of 0.52. For A45G A56G U66C U69A, the self-cleavage was 0.3. Work on A45G A56G U67C yielded a self-cleavage of 0.36. With A45G A56G U69A C79A the self-cleavage was 0.28. With A45G A56G U78C the self-cleavage was 0.56. With A45G A56U A57U U72A the self-cleavage was 0.18. A45G A56U A65G gave a self-cleavage of 0.28. Work on A45G A56U C59U G63A A64C yielded a self-cleavage of 0.02. In the case of A45G A56U U60C C71G, the self-cleavage is reported as 0.3. With A45G A56U U60C U76C the self-cleavage was 0.82. In the case of A45G A56U U78A, the self-cleavage is reported as 0.4. Work on A45G A56U U80C C81U yielded a self-cleavage of 0.42. In the case of A45G A57C U58C G63A C71G, the self-cleavage is reported as 0.1. A45G A57G A64G showed a self-cleavage of 0.59. A45G A57G G61A A64G showed a self-cleavage of 0.45. In the case of A45G A57G U58A U72C, the self-cleavage is reported as 0.15. A45G A57G U58C U72G showed a self-cleavage of 0.15. In the case of A45G A57G U74C A75G, the self-cleavage is reported as 0.89. A45G A57U U58A A64G gave a self-cleavage of 0.28. With A45G A57U U66C A77U the self-cleavage was 0.2. A45G A57U U76C gave a self-cleavage of 0.53. For A45G A64C U74C, the self-cleavage was 0.24. For A45G A64G A77C, the self-cleavage was 0.62. With A45G A64G G73C U76A the self-cleavage was 1.22. Variant A45G A64G U74C A75G has a self-cleavage of 0.95. Variant A45G A64U U69A has a self-cleavage of 0.43. For A45G A64U U72C U74C A75G C79A, the self-cleavage was 0.47. In the case of A45G A65G U66C, the self-cleavage is reported as 0.15. A45G A65G U74C A75G gave a self-cleavage of 0.39. For A45G A65G U76C, the self-cleavage was 0.34. With A45G A65G U78C the self-cleavage was 0.27. A45G C50A U54C showed a self-cleavage of 0.48. In the case of A45G C50A U54C U67A, the self-cleavage is reported as 0.12. A45G C50U A64U U74C gave a self-cleavage of 0.33. For A45G C59U U67A, the self-cleavage was 0.16. Work on A45G C59U U72A yielded a self-cleavage of 0.15. For A45G C62A A64G, the self-cleavage was 0.26. For A45G C62A U72A, the self-cleavage was 0.25. For A45G C62U U72C, the self-cleavage was 0.39. A45G G46A U48A gave a self-cleavage of 0.23. In the case of A45G G46A U49C, the self-cleavage is reported as 0.16. In the case of A45G G46C U48C U60A, the self-cleavage is reported as 0.17. Variant A45G G46U A47C G63A U72A U78C has a self-cleavage of 0.08. With A45G G52A U78A the self-cleavage was 1.13. With A45G G52C A56G U76C the self-cleavage was 0.61. For A45G G52U G61C U66C, the self-cleavage was 0.17. A45G G52U U72A showed a self-cleavage of 0.63. With A45G G53U U60C the self-cleavage was 1.02. In the case of A45G G55A U72A U78A, the self-cleavage is reported as 0.22. Variant A45G G55U A75G has a self-cleavage of 0.7. In the case of A45G G61A C62G U76C, the self-cleavage is reported as 0.13. For A45G G63A U69A, the self-cleavage was 0.36. With A45G G63A U76C the self-cleavage was 0.7. With A45G G63U A64G U72C U74C the self-cleavage was 0.6. A45G G63U U78C gave a self-cleavage of 0.85. For A45G G70C C79U, the self-cleavage was 0.33. A45G U48A U54A A56G U78C showed a self-cleavage of 0.07. In the case of A45G U48C A57G A65G, the self-cleavage is reported as 0.24. For A45G U48C A65G, the self-cleavage was 0.33. In the case of A45G U48C A75G U76A, the self-cleavage is reported as 0.12. A45G U48C C62A U74C gave a self-cleavage of 0.18. In the case of A45G U48C U49C A64C A77G, the self-cleavage is reported as 0.07. A45G U48C U51C gave a self-cleavage of 0.37. With A45G U48C U58A U60C U72G U76A the self-cleavage was 0.03. A45G U48C U60A U80A gave a self-cleavage of 0.05. Variant A45G U48C U67C has a self-cleavage of 0.25. A45G U48C U72A showed a self-cleavage of 0.21. A45G U48C U80C gave a self-cleavage of 0.28. For A45G U49A C50A U78A, the self-cleavage was 0.27. Variant A45G U49A U66C A75G has a self-cleavage of 0.1. In the case of A45G U49C A56G U78C, the self-cleavage is reported as 0.87. A45G U49C A65G gave a self-cleavage of 0.1. For A45G U49C C62U, the self-cleavage was 0.09. Work on A45G U49C C71A U78C yielded a self-cleavage of 0.18. For A45G U49C G63A U69C U74C, the self-cleavage was 0.11. Work on A45G U49C U51A U69C yielded a self-cleavage of 0.12. Work on A45G U49C U51C U69A yielded a self-cleavage of 0.07. For A45G U49C U51G U60A U74A C81A, the self-cleavage was 0.23. For A45G U49C U54C U72C U74C, the self-cleavage was 0.1. In the case of A45G U49C U58C A65G C81U, the self-cleavage is reported as 0.13. A45G U49C U60A U72C showed a self-cleavage of 0.1. A45G U49C U67C gave a self-cleavage of 0.18. In the case of A45G U49C U69C U78C, the self-cleavage is reported as 0.08. With A45G U49C U78C U80A the self-cleavage was 0.11. In the case of A45G U49G G55A, the self-cleavage is reported as 0.21. Variant A45G U51A A56C U60A has a self-cleavage of 0.21. A45G U51A A57G C79G gave a self-cleavage of 0.38. A45G U51A A75U showed a self-cleavage of 0.55. A45G U51A A77G showed a self-cleavage of 0.7. Work on A45G U51A U72C yielded a self-cleavage of 1.12. Work on A45G U51C A57C yielded a self-cleavage of 0.13. A45G U51C A57G showed a self-cleavage of 0.48. A45G U51C A57G U72G gave a self-cleavage of 0.51. With A45G U51C A64U U80A the self-cleavage was 0.26. A45G U51C A77G gave a self-cleavage of 0.68. A45G U51C G70A U72A U76C showed a self-cleavage of 0.22. Variant A45G U51C U60A A64G has a self-cleavage of 0.19. For A45G U51C U67C C68U U69C, the self-cleavage was 0.24. A45G U51C U69C U74C showed a self-cleavage of 0.38. A45G U51G A64G showed a self-cleavage of 0.69. Variant A45G U51G A77U has a self-cleavage of 0.66. Work on A45G U54A U60A U67C U72C yielded a self-cleavage of 0.27. In the case of A45G U54A U60A U69C U72C, the self-cleavage is reported as 0.26. A45G U54A U60C U69C gave a self-cleavage of 0.63. In the case of A45G U54A U66C, the self-cleavage is reported as 0.28. With A45G U54C U58A U80A the self-cleavage was 0.42. A45G U54C U58C U72C A77G gave a self-cleavage of 0.2. A45G U54C U60C gave a self-cleavage of 1.19. A45G U54C U60C C62A showed a self-cleavage of 0.46. A45G U54C U66A U76A A77G showed a self-cleavage of 0.18. For A45G U54C U67C, the self-cleavage was 0.23. Work on A45G U54C U72A U80C yielded a self-cleavage of 1.06. Variant A45G U54C U72C has a self-cleavage of 1.03. Work on A45G U54C U72G yielded a self-cleavage of 0.5. With A45G U54C U80A the self-cleavage was 1. With A45G U54G U76C the self-cleavage was 0.56. For A45G U58A U66C, the self-cleavage was 0.11. With A45G U58C G63A C71G the self-cleavage was 0.23. With A45G U58C U60A the self-cleavage was 0.2. A45G U58C U60G U80A gave a self-cleavage of 0.19. Work on A45G U58G A64G yielded a self-cleavage of 0.37. Variant A45G U60A A65G has a self-cleavage of 0.26. A45G U60A A65G A77U showed a self-cleavage of 0.15. A45G U60A A75G showed a self-cleavage of 0.33. Work on A45G U60A U69C yielded a self-cleavage of 0.33. A45G U60A U74C A75U gave a self-cleavage of 1.07. With A45G U60A U80A the self-cleavage was 0.79. For A45G U60C C68U, the self-cleavage was 0.89. A45G U60C U72A U76C gave a self-cleavage of 1.29. With A45G U60C U78C the self-cleavage was 1.15. A45G U66A U80C gave a self-cleavage of 0.4. In the case of A45G U66C U72G, the self-cleavage is reported as 0.24. A45G U66C U80C gave a self-cleavage of 0.44. A45G U67C A75U gave a self-cleavage of 0.23. In the case of A45G U67C U69C U72C A75G, the self-cleavage is reported as 0.21. With A45G U67C U78C the self-cleavage was 0.31. Work on A45G U67G G70C yielded a self-cleavage of 0.16. For A45G U69A U72A, the self-cleavage was 0.2. A45G U69A U72A U78C gave a self-cleavage of 0.35. Variant A45G U69A U78C has a self-cleavage of 0.71. A45G U69C A75U gave a self-cleavage of 0.25. Variant A45G U69C U76C has a self-cleavage of 0.54. Variant A45G U72C A77U has a self-cleavage of 0.98. In the case of A45G U76A U80C, the self-cleavage is reported as 1.09. A45G U76C A77G gave a self-cleavage of 0.86. Variant A45G U78C U80A C81A has a self-cleavage of 1.17. Work on A45U A47G U48C U54G yielded a self-cleavage of 0.34. A45U A47G U51A U74C showed a self-cleavage of 0.32. With A45U A47G U51C U58C U60A C79A the self-cleavage was 1.27. A45U A47G U54C gave a self-cleavage of 0.34.

From the RNAGym collection of RNA variant scans (doi:10.1093/nar/gkz1192)
